Target: the molecule itself
Test: crystal structure; pro-myostatin and 29H4-16 Fab mixed 1:1, complex purified by SEC; sitting drop, 0.1 M Na citrate pH 5.5, 20% PEG 3350, 15% 2-propanol, 3% trimethylamine N-oxide; 2.79 Å, P212121

B1: pro-myostatin (uncleavable precursor, D99A/R263A/R266A) (natural protein)
chain: not shown
notes: human myostatin (GDF8), […] (prodomain and growth factor), tolloid and furin cleavage sites mutated; a tobacco etch virus protease site stands between the His6 tag and residue 24; disulfide-linked homodimer; Signal peptide of the mouse IgG heavy chain in the construct (secreted); also called proGDF8; myostatin precursor; source: with kifunensine for crystallography
With B1 the “stoichiometry N” value was 2.

From PMC7170532, “Structural basis of specific inhibition of extracellular activation of pro- or latent myostatin by the monoclonal antibody SRK-015” (The Journal of Biological Chemistry, 2020)
